Data as given in the supplement of paper PMC8728848.
Some of the results follow.

Experiments:
Assay in all cases: glycan array binding signal (z-score within array); higher = stronger binding
Details in all cases: glycan notation: IUPAC condensed, linker removed; mutation: E41G
Gal(a1-3)Gal = biological target: Gal(a1-3)Gal
How it was run: (§1)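 Glycan array binding is given as a within-array Z-score, which can be read as non-binding when negative. The arrays, 3228 of them, came from the Consortium for Functional Glycomics database and were retained only where the protein sequence was available. Z-scores were averaged across arrays of the same protein sequence at different concentrations or buffers and across linkers.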

Gal(a1-3)Gal(b1-3)GlcNAc = biological target: Gal(a1-3)Gal(b1-3)GlcNAc
How it was run: as §1

[1] = biological target: Gal(a1-3)Gal(b1-3)GlcNAc(b1-2)Man
How it was run: as §1

[2] = biological target: Gal(a1-3)Gal(b1-3)GlcNAc(b1-2)Man(a1-3)[Gal(a1-3)Gal(b1-3)GlcNAc(b1-2)Man(a1-6)]Man(b1-4)GlcNAc(b1-4)GlcNAc
How it was run: as §1

[3] = biological target: Gal(a1-3)Gal(b1-3)GlcNAc(b1-3)GalNAc
How it was run: as §1

[4] = biological target: Gal(a1-3)Gal(b1-3)GlcNAc(b1-6)GalNAc
How it was run: as §1

[5] = biological target: Gal(a1-3)Gal(b1-3)[Fuc(a1-4)]GlcNAc(b1-2)Man(a1-3)[Gal(a1-3)Gal(b1-3)[Fuc(a1-4)]GlcNAc(b1-2)Man(a1-6)]Man(b1-4)GlcNAc(b1-4)GlcNAc
How it was run: as §1

Gal(a1-3)Gal(b1-4)Glc = biological target: Gal(a1-3)Gal(b1-4)Glc
How it was run: as §1

Gal(a1-3)Gal(b1-4)GlcNAc = biological target: Gal(a1-3)Gal(b1-4)GlcNAc
How it was run: as §1

[6] = biological target: Gal(a1-3)Gal(b1-4)GlcNAc(b1-2)Man
How it was run: as §1

[7] = biological target: Gal(a1-3)Gal(b1-4)GlcNAc(b1-2)Man(a1-3)[Gal(a1-3)Gal(b1-4)GlcNAc(b1-2)Man(a1-6)]Man(b1-4)GlcNAc(b1-4)GlcNAc
How it was run: as §1

[8] = biological target: Gal(a1-3)Gal(b1-4)GlcNAc(b1-3)GalNAc
How it was run: as §1

[9] = biological target: Gal(a1-3)Gal(b1-4)GlcNAc(b1-6)GalNAc
How it was run: as §1

[10] = biological target: Gal(a1-3)Gal(b1-4)[Fuc(a1-3)]GlcNAc
How it was run: as §1

[11] = biological target: Gal(a1-3)Gal(b1-4)[Fuc(a1-3)]GlcNAc(b1-2)Man(a1-3)[Gal(a1-3)Gal(b1-4)[Fuc(a1-3)]GlcNAc(b1-2)Man(a1-6)]Man(b1-4)GlcNAc(b1-4)GlcNAc
How it was run: as §1

Gal(a1-3)GalNAc = biological target: Gal(a1-3)GalNAc
How it was run: as §1

[12] = biological target: Gal(a1-3)[Gal(a1-4)]Gal(b1-4)GlcNAc
How it was run: as §1

[13] = biological target: Gal(a1-4)Gal(b1-3)GlcNAc(b1-2)Man(a1-3)[Gal(a1-4)Gal(b1-3)GlcNAc(b1-2)Man(a1-6)]Man(b1-4)GlcNAc(b1-4)GlcNAc
How it was run: as §1

Gal(a1-4)Gal(b1-4)Glc = biological target: Gal(a1-4)Gal(b1-4)Glc
How it was run: as §1

Gal(a1-4)Gal(b1-4)GlcNAc = biological target: Gal(a1-4)Gal(b1-4)GlcNAc
How it was run: as §1

[14] = biological target: Gal(a1-4)Gal(b1-4)GlcNAc(b1-2)Man(a1-3)[Gal(a1-4)Gal(b1-4)GlcNAc(b1-2)Man(a1-6)]Man(b1-4)GlcNAc(b1-4)GlcNAc
How it was run: as §1

[15] = biological target: Gal(a1-4)Gal(b1-4)GlcNAc(b1-3)Gal(b1-4)Glc
How it was run: as §1

Gal(a1-4)GlcNAc = biological target: Gal(a1-4)GlcNAc
How it was run: as §1

Gal(a1-6)Glc = biological target: Gal(a1-6)Glc
How it was run: as §1

Gal(b1-2)Gal = biological target: Gal(b1-2)Gal
How it was run: as §1

Gal(b1-3)Gal = biological target: Gal(b1-3)Gal
How it was run: as §1

Gal(b1-3)Gal(b1-4)GlcNAc = biological target: Gal(b1-3)Gal(b1-4)GlcNAc
How it was run: as §1

Gal(b1-3)GalNAc = biological target: Gal(b1-3)GalNAc
How it was run: as §1

[16] = biological target: Gal(b1-3)GalNAc(a1-3)[Fuc(a1-2)]Gal(b1-4)Glc
How it was run: as §1

[17] = biological target: Gal(b1-3)GalNAc(a1-3)[Fuc(a1-2)]Gal(b1-4)GlcNAc
How it was run: as §1

Gal(b1-3)GalNAc(b1-3)Gal = biological target: Gal(b1-3)GalNAc(b1-3)Gal
How it was run: as §1

[18] = biological target: Gal(b1-3)GalNAc(b1-3)Gal(a1-4)Gal(b1-4)Glc
How it was run: as §1

[19] = biological target: Gal(b1-3)GalNAc(b1-4)Gal(b1-4)Glc
How it was run: as §1

[20] = biological target: Gal(b1-3)GalNAc(b1-4)[Neu5Ac(a2-3)]Gal(b1-4)Glc
How it was run: as §1

Gal(b1-3)GlcNAc = biological target: Gal(b1-3)GlcNAc
How it was run: as §1

[21] = biological target: Gal(b1-3)GlcNAc(a1-3)Gal(b1-4)GlcNAc
How it was run: as §1

[22] = biological target: Gal(b1-3)GlcNAc(a1-6)Gal(b1-4)GlcNAc
How it was run: as §1

Gal(b1-3)GlcNAc(b1-2)Man = biological target: Gal(b1-3)GlcNAc(b1-2)Man
How it was run: as §1

B1: CVN-E41G (protein)
chain: MHHHHHHENLYFQSGNFSQACYNSAIQGSVLTSTCIRTNGGYNTSSIDLNSVIGNVDGSLKWQGSNFIETCRNTQLAGSSELAAECKTRAQQFVSTKINLDDHIAAIDGTLKYE
In the case of B1, the “glycan array binding signal (z-score)” value (Gal(a1-3)Gal) is reported as -0.158, the “glycan array binding signal (z-score)” value (Gal(a1-3)Gal(b1-3)GlcNAc) is reported as -0.138 and the “glycan array binding signal (z-score)” value [1] is reported as -0.137. For the same binder, the “glycan array binding signal (z-score)” value [2] was -0.116, the “glycan array binding signal (z-score)” value [3] was -0.138 and the “glycan array binding signal (z-score)” value [4] was -0.165. The “glycan array binding signal (z-score)” value [5] was 1, the “glycan array binding signal (z-score)” value (Gal(a1-3)Gal(b1-4)Glc) was -0.178 and the “glycan array binding signal (z-score)” value (Gal(a1-3)Gal(b1-4)GlcNAc) was -0.162. The “glycan array binding signal (z-score)” value [6] was -0.115, the “glycan array binding signal (z-score)” value [7] was -0.126 and the “glycan array binding signal (z-score)” value [8] was -0.166. The “glycan array binding signal (z-score)” value [9] was -0.176, the “glycan array binding signal (z-score)” value [10] was -0.174 and the “glycan array binding signal (z-score)” value [11] was -0.004. The “glycan array binding signal (z-score)” value (Gal(a1-3)GalNAc) was -0.162, the “glycan array binding signal (z-score)” value [12] was -0.13 and the “glycan array binding signal (z-score)” value [13] was 0.053. For the same binder, the “glycan array binding signal (z-score)” value (Gal(a1-4)Gal(b1-4)Glc) was -0.124, the “glycan array binding signal (z-score)” value (Gal(a1-4)Gal(b1-4)GlcNAc) was -0.126 and the “glycan array binding signal (z-score)” value [14] was -0.161. The “glycan array binding signal (z-score)” value [15] was -0.158, the “glycan array binding signal (z-score)” value (Gal(a1-4)GlcNAc) was -0.157 and the “glycan array binding signal (z-score)” value (Gal(a1-6)Glc) was -0.166. For the same binder, the “glycan array binding signal (z-score)” value (Gal(b1-2)Gal) was -0.147, the “glycan array binding signal (z-score)” value (Gal(b1-3)Gal) was -0.141 and the “glycan array binding signal (z-score)” value (Gal(b1-3)Gal(b1-4)GlcNAc) was -0.14. For the same binder, the “glycan array binding signal (z-score)” value (Gal(b1-3)GalNAc) was -0.158, the “glycan array binding signal (z-score)” value [16] was -0.175 and the “glycan array binding signal (z-score)” value [17] was -0.167. The “glycan array binding signal (z-score)” value (Gal(b1-3)GalNAc(b1-3)Gal) was 0.005, the “glycan array binding signal (z-score)” value [18] was -0.154 and the “glycan array binding signal (z-score)” value [19] was -0.172. The “glycan array binding signal (z-score)” value [20] was -0.168, the “glycan array binding signal (z-score)” value (Gal(b1-3)GlcNAc) was -0.169 and the “glycan array binding signal (z-score)” value [21] was -0.176. For the same binder, the “glycan array binding signal (z-score)” value [22] was -0.185 and the “glycan array binding signal (z-score)” value (Gal(b1-3)GlcNAc(b1-2)Man) was -0.09.
